31 variants from the supplement of paper PMC7125110 can be followed below.

± gives the standard error. Variants at the background level are over-represented here.

The chains are these.
B1: glmS ribozyme (parent)
chain: AUAAAAGCGCCAGAACUACAGAAAUGUAGUUGACGAGGAGGAGGUUUAUCGAAUUUUCGGCGGAUGCCUCCAAA

Common to all, as to settings: with glucosamine-6-phosphate
The variants in series [1] derive from B1. The experiment in a line: self-cleavage kobs at 640 uM GlcN6P; higher = faster cleavage; RNA array. In outline:
(§1)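 Glucosamine-6-phosphate (40 μM to 10 mM) in HEPES/KCl/Mg(OAc)2 buffer was flowed over sequenced MiSeq chips, and tiles were imaged over ~14 h. Barcoded ribozyme variants there had been transcribed in situ by E. coli RNA polymerase and were tracked through a hybridised Cy3 probe at 37 °C. One- or two-exponential decay fits to per-tile medians, normalised to baseline and to non-cleaving reference variants, gave kobs. kcat and KM came from weighted Michaelis–Menten fits across concentrations.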

Series [2] covers variants of B1. As to the kind of experiment: self-cleavage kobs at 160 uM GlcN6P; higher = faster cleavage; RNA array. Summed up: as §1
The variants in series [3] derive from B1. The experiment in a line: self-cleavage kobs at 2500 uM GlcN6P; higher = faster cleavage; RNA array. In outline: as §1
Series [4] covers variants of B1. The experiment in a line: self-cleavage kobs at 10000 uM GlcN6P; higher = faster cleavage; RNA array. Summed up: as §1

As for A53G U55A G66U, in the series with glucosamine-6-phosphate [1], the “self-cleavage kobs at 640 uM GlcN6P” value worked out at 0.000436 ± 9.4e-05 s⁻¹. Moreover, the “self-cleavage kobs at 160 uM GlcN6P” value with glucosamine-6-phosphate [2] was found to be 0.000163 ± 4.6e-05 s⁻¹. Further, the “self-cleavage kobs at 2500 uM GlcN6P” value with glucosamine-6-phosphate [3] is 0.000351 ± 0.00011 s⁻¹. With G7C A14U G32U A36G G43C, the “self-cleavage kobs at 2500 uM GlcN6P” value with glucosamine-6-phosphate [3] is less than 1e-05 s⁻¹.

As to G43C C50G C67U, in the series with glucosamine-6-phosphate [2], the “self-cleavage kobs at 160 uM GlcN6P” value is less than 1e-05 s⁻¹. On to A14U U49G A53U U69G, for which the “self-cleavage kobs at 160 uM GlcN6P” value in the series with glucosamine-6-phosphate [2] is 8.99e-05 ± 3.4e-05 s⁻¹. In addition, the “self-cleavage kobs at 2500 uM GlcN6P” value in the series with glucosamine-6-phosphate [3] is 7.58e-05 ± 2.1e-05 s⁻¹.

On to A6U G37U G40C U47A C50U, for which the “self-cleavage kobs at 2500 uM GlcN6P” value with glucosamine-6-phosphate [3] is less than 1e-05 s⁻¹. Turning to G44A G51U A64U, in the series with glucosamine-6-phosphate [1], the “self-cleavage kobs at 640 uM GlcN6P” value was less than 1e-05 s⁻¹. For the same variant, in the series with glucosamine-6-phosphate [2], the “self-cleavage kobs at 160 uM GlcN6P” value is less than 1e-05 s⁻¹. Besides, in the series with glucosamine-6-phosphate [3], the “self-cleavage kobs at 2500 uM GlcN6P” value was less than 1e-05 s⁻¹. As to A6C C11U G62U, the “self-cleavage kobs at 2500 uM GlcN6P” value in the series with glucosamine-6-phosphate [3] is less than 1e-05 s⁻¹.

As for A42C A52U, the “self-cleavage kobs at 160 uM GlcN6P” value in the series with glucosamine-6-phosphate [2] was less than 1e-05 s⁻¹.

As to C8A G44C A52G U65A, the “self-cleavage kobs at 160 uM GlcN6P” value in the series with glucosamine-6-phosphate [2] was less than 1e-05 s⁻¹. The “self-cleavage kobs at 2500 uM GlcN6P” value with glucosamine-6-phosphate [3] was less than 1e-05 s⁻¹. In the case of A48U A53C C68G C71G, the “self-cleavage kobs at 640 uM GlcN6P” value with glucosamine-6-phosphate [1] came to 9.77e-05 ± 3.4e-05 s⁻¹.

As for U49A U56C, the “self-cleavage kobs at 640 uM GlcN6P” value in the series with glucosamine-6-phosphate [1] was less than 1e-05 s⁻¹. The “self-cleavage kobs at 2500 uM GlcN6P” value with glucosamine-6-phosphate [3] was less than 1e-05 s⁻¹. As to A6U A42C G60U, the “self-cleavage kobs at 160 uM GlcN6P” value in the series with glucosamine-6-phosphate [2] was less than 1e-05 s⁻¹. For the same variant, the “self-cleavage kobs at 2500 uM GlcN6P” value with glucosamine-6-phosphate [3] is less than 1e-05 s⁻¹. For G38A A64C, the “self-cleavage kobs at 640 uM GlcN6P” value in the series with glucosamine-6-phosphate [1] was less than 1e-05 s⁻¹. Further, in the series with glucosamine-6-phosphate [2], the “self-cleavage kobs at 160 uM GlcN6P” value was less than 1e-05 s⁻¹. Also, the “self-cleavage kobs at 10000 uM GlcN6P” value in the series with glucosamine-6-phosphate [4] was less than 1e-05 s⁻¹. Turning to C11A U31C U57A, the “self-cleavage kobs at 160 uM GlcN6P” value in the series with glucosamine-6-phosphate [2] was less than 1e-05 s⁻¹.

For the variant G29A U30G G35A G38U U46A C71G, the “self-cleavage kobs at 160 uM GlcN6P” value in the series with glucosamine-6-phosphate [2] is less than 1e-05 s⁻¹.

Turning to U54G U55C U56G G59C U69G, in the series with glucosamine-6-phosphate [1], the “self-cleavage kobs at 640 uM GlcN6P” value is 0.000119 ± 4.3e-05 s⁻¹. For the same variant, the “self-cleavage kobs at 2500 uM GlcN6P” value with glucosamine-6-phosphate [3] came out at 6.83e-05 ± 2.7e-05 s⁻¹. Regarding G37C G59C, the “self-cleavage kobs at 640 uM GlcN6P” value with glucosamine-6-phosphate [1] was less than 1e-05 s⁻¹. Besides, the “self-cleavage kobs at 2500 uM GlcN6P” value with glucosamine-6-phosphate [3] was less than 1e-05 s⁻¹. Besides, in the series with glucosamine-6-phosphate [4], the “self-cleavage kobs at 10000 uM GlcN6P” value was less than 1e-05 s⁻¹. Take G7A U56G U65C: the “self-cleavage kobs at 2500 uM GlcN6P” value with glucosamine-6-phosphate [3] is less than 1e-05 s⁻¹. Regarding G37U U57C G59C U69G, in the series with glucosamine-6-phosphate [1], the “self-cleavage kobs at 640 uM GlcN6P” value is less than 1e-05 s⁻¹. On the same count and under the same terms, under U46C U49G G59C G66C stands less than 1e-05 s⁻¹. On to C50G A64C, for which the “self-cleavage kobs at 160 uM GlcN6P” value with glucosamine-6-phosphate [2] is 7.93e-05 ± 2.1e-05 s⁻¹. Also, in the series with glucosamine-6-phosphate [3], the “self-cleavage kobs at 2500 uM GlcN6P” value came to 6.53e-05 ± 1.7e-05 s⁻¹. The “self-cleavage kobs at 10000 uM GlcN6P” value with glucosamine-6-phosphate [4] was 2.52e-05 ± 1.2e-05 s⁻¹.

In the case of A6U C58A C67A, the “self-cleavage kobs at 2500 uM GlcN6P” value with glucosamine-6-phosphate [3] is less than 1e-05 s⁻¹. A39G G60U G66U C67A: in the series with glucosamine-6-phosphate [1], the “self-cleavage kobs at 640 uM GlcN6P” value is less than 1e-05 s⁻¹. Besides, the “self-cleavage kobs at 10000 uM GlcN6P” value with glucosamine-6-phosphate [4] is less than 1e-05 s⁻¹. For the variant A39G G40U C58G, the “self-cleavage kobs at 640 uM GlcN6P” value with glucosamine-6-phosphate [1] was less than 1e-05 s⁻¹. Same read-out and setting: under A36U U57G C67G stands less than 1e-05 s⁻¹. Consider G37U A39C, for which, in the series with glucosamine-6-phosphate [1], the “self-cleavage kobs at 640 uM GlcN6P” value is less than 1e-05 s⁻¹. The “self-cleavage kobs at 160 uM GlcN6P” value with glucosamine-6-phosphate [2] was less than 1e-05 s⁻¹. The “self-cleavage kobs at 2500 uM GlcN6P” value with glucosamine-6-phosphate [3] is less than 1e-05 s⁻¹. Moreover, the “self-cleavage kobs at 10000 uM GlcN6P” value with glucosamine-6-phosphate [4] was less than 1e-05 s⁻¹.

In the case of G7C A12G G35U U46A, the “self-cleavage kobs at 2500 uM GlcN6P” value with glucosamine-6-phosphate [3] was less than 1e-05 s⁻¹. As to G40C G62C, in the series with glucosamine-6-phosphate [2], the “self-cleavage kobs at 160 uM GlcN6P” value is less than 1e-05 s⁻¹. The “self-cleavage kobs at 2500 uM GlcN6P” value with glucosamine-6-phosphate [3] was less than 1e-05 s⁻¹. The “self-cleavage kobs at 10000 uM GlcN6P” value with glucosamine-6-phosphate [4] was less than 1e-05 s⁻¹. G41A G51C A64C: in the series with glucosamine-6-phosphate [1], the “self-cleavage kobs at 640 uM GlcN6P” value is less than 1e-05 s⁻¹. G43C U56A: the “self-cleavage kobs at 640 uM GlcN6P” value in the series with glucosamine-6-phosphate [1] is less than 1e-05 s⁻¹. Also, the “self-cleavage kobs at 160 uM GlcN6P” value with glucosamine-6-phosphate [2] is less than 1e-05 s⁻¹. Besides, the “self-cleavage kobs at 2500 uM GlcN6P” value with glucosamine-6-phosphate [3] was less than 1e-05 s⁻¹. Further, in the series with glucosamine-6-phosphate [4], the “self-cleavage kobs at 10000 uM GlcN6P” value is less than 1e-05 s⁻¹. For G59C C71G, the “self-cleavage kobs at 160 uM GlcN6P” value with glucosamine-6-phosphate [2] was less than 1e-05 s⁻¹.
